The subject of the data set is ATP. The data set is described as follows: switch fluorescence ratio, 500 uM ATP over buffer (Cy3 cluster intensity, sum of 5 cycles each) (fold (ratio)); higher = stronger signal-on switching upon ATP binding; sequences stand for … in TCGTCGGCAGCGTCAGATGTGTATAAGAGACAGTTTTTTTTTTTTTTTTTTTTTTTTT…TC. The following applies: aptamer strand: ATP DNA aptamer (quencher-CACCTGGGGGAGTATTGCGGAGGAAGG + anchor), 100 nM annealed; ATP concentration: 500 uM; one replicate. In outline:
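Switching-strand clusters labelled with Cy3 on a modified Illumina MiSeq flow-cell were annealed to 100 nM quencher-labelled ATP aptamer, imaged in selection buffer, and re-imaged after 15 min with 500 uM ATP at 22 °C. This was done over five cycles with NaOH stripping and re-annealing in between. The fluorescence ratio is summed target-cycle over summed buffer-cycle Cy3 intensity per cluster, averaged per switch-domain sequence, excluding clusters outside 100-1000 RFU.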

Values marked as one replicate rest on one cluster of the flow cell; about a third of the high ones do not repeat.

We go through 120 sequences from the supplement of paper PMC10126150.
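Further: ATP exposure 15 min at 22 °C before imaging.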

Consider GAAGTTGCGT, for which the switch fluorescence ratio came out at 0.959.

With TTGTATCGGG, the switch fluorescence ratio came out at 0.979.

Take CGCTTCTGTT: the switch fluorescence ratio stood at 1.

Turning to GTGCTTAAGT, the switch fluorescence ratio is 0.991.

Regarding GGTACAGGTG, the switch fluorescence ratio came to 2.82.

Turning to ACCGGCTTTC, the switch fluorescence ratio was 1.02.

ATGCCCGGTC: the switch fluorescence ratio came to 1.02.

As to AACATGGCAA, the switch fluorescence ratio was 1.02.

Consider ATTTGTTCCC, for which the switch fluorescence ratio was 0.985.

Turning to AGATGCGTGA, the switch fluorescence ratio was 0.945.

Consider CCCCCCCGAA, for which the switch fluorescence ratio was determined as 2.08.

In the case of TTACCTGTCG, the switch fluorescence ratio stood at 0.975.

As to GAGTCCAAGA, the switch fluorescence ratio amounted to 1.23.

Turning to GGTACGTAT, the switch fluorescence ratio was found to be 0.958.

As to CTCGATAACA, the switch fluorescence ratio amounted to 1.01.

Regarding AGAAAGTCGG, the switch fluorescence ratio was determined as 1.01.

Turning to TAGTATTGTT, the switch fluorescence ratio was 0.977.

For the sequence CGGCGTGACA, the switch fluorescence ratio came to 0.981.

As to TGGGAACTGC, the switch fluorescence ratio worked out at 0.992.

For AGGTAGGGC, the switch fluorescence ratio was determined as 0.983.

GCCGATCGGA: the switch fluorescence ratio worked out at 1.02.

As to GCGAGAAGGT, the switch fluorescence ratio was 0.976.

In the case of AAGAAGCTAC, the switch fluorescence ratio was determined as 1.66.

Consider GTATGCGT, for which the switch fluorescence ratio is 0.973.

On to CTGTATCTT, for which the switch fluorescence ratio worked out at 0.968.

As for CGTTGTAAAC, the switch fluorescence ratio turned out to be 0.968.

Take GTCAGATGTC: the switch fluorescence ratio amounted to 0.933.

For ATATAGCCGC, the switch fluorescence ratio turned out to be 1.06.

Turning to GCATTCAGCG, the switch fluorescence ratio was 1.03.

As for GGTAATCGGG, the switch fluorescence ratio is 0.938.

In the case of CTTGAGTAC, the switch fluorescence ratio stood at 0.983.

On to ATCGGGTGAA, for which the switch fluorescence ratio was determined as 1.01.

For ATGGAGTTCA, the switch fluorescence ratio was determined as 1.02.

As to GGTTGATGAG, the switch fluorescence ratio worked out at 0.939.

As for TTTGTCAATG, the switch fluorescence ratio is 1.04.

Regarding ACGTTTTGCT, the switch fluorescence ratio was found to be 0.952.

Consider TAGTAGCTCG, for which the switch fluorescence ratio was found to be 1.03.

In the case of GTAAACATCC, the switch fluorescence ratio is 1.21.

As to ATGAGCGCTG, the switch fluorescence ratio amounted to 1.

Turning to CGCCACTTAA, the switch fluorescence ratio is 1.

Take ACGAGATAAT: the switch fluorescence ratio came to 1.07.

Turning to GGATGTCTAA, the switch fluorescence ratio worked out at 0.997.

For the sequence TACTGGTCTG, the switch fluorescence ratio is 1.02.

Regarding TGATCAGGTT, the switch fluorescence ratio turned out to be 1.02.

Take ATATCGGTGA: the switch fluorescence ratio is 0.984.

CTCGATAAGC: the switch fluorescence ratio came out at 1.13.

TGGTCTACGA: the switch fluorescence ratio is 0.999.

In the case of TGCCTTTATA, the switch fluorescence ratio was 1.07.

On to AACACGATCT, for which the switch fluorescence ratio came to 0.976.

As for TTAGTATCTA, the switch fluorescence ratio amounted to 1.02.

Regarding TAACAAAAGG, the switch fluorescence ratio came out at 1.02.

Regarding AGCGATATGC, the switch fluorescence ratio was found to be 1.09.

In the case of GGCTTGAGGT, the switch fluorescence ratio was 0.956.

TTATGATGGC: the switch fluorescence ratio was 0.928.

With AAAGACCGGG, the switch fluorescence ratio came to 1.01.

Take TAGGCTTTGC: the switch fluorescence ratio was 0.952.

Turning to GTCAGCC, the switch fluorescence ratio was 1.01.

For the sequence ATTGGAATCT, the switch fluorescence ratio stood at 0.981.

AGAGCCTCGG: the switch fluorescence ratio came to 0.942.

With CACCAGGTCG, the switch fluorescence ratio came to 2.01.

As to GACCGGCGGC, the switch fluorescence ratio came to 0.938.

For the sequence TCAGTGGTAC, the switch fluorescence ratio came out at 1.16.

Take CGATCACGCG: the switch fluorescence ratio was 0.985.

With GGCCTCCTTA, the switch fluorescence ratio stood at 1.04.

On to AACGGCGGAT, for which the switch fluorescence ratio was 1.07.

Consider CTGAGCTCAA, for which the switch fluorescence ratio was found to be 1.05.

Consider GTGACTTCCG, for which the switch fluorescence ratio stood at 0.983.

CGGACTGAGG: the switch fluorescence ratio stood at 0.96.

Regarding GCATTGCAAG, the switch fluorescence ratio was 1.03.

As to AACTGAAGGC, the switch fluorescence ratio was 1.1.

Take CGTTCCGCTG: the switch fluorescence ratio was 1.29.

Consider ACCGGGGCGT, for which the switch fluorescence ratio came out at 1.02.

CCATGGAGTG: the switch fluorescence ratio amounted to 1.02.

In the case of CGGATCCG, the switch fluorescence ratio turned out to be 0.973.

Turning to ATATAGGCTT, the switch fluorescence ratio worked out at 1.

With CGCATGGGCA, the switch fluorescence ratio turned out to be 0.943.

GGTAAGAGTG: the switch fluorescence ratio was determined as 0.98.

AGATTTCTAA: the switch fluorescence ratio was found to be 0.96.

Consider TACGACTCGA, for which the switch fluorescence ratio turned out to be 1.12.

On to TAGGGGACCC, for which the switch fluorescence ratio came to 1.

Consider CCAGCAACAG, for which the switch fluorescence ratio amounted to 3.28.

CCATGTCAAA: the switch fluorescence ratio was found to be 1.04.

With CATCGTACGA, the switch fluorescence ratio is 1.05.

Turning to TGGGGGGTA, the switch fluorescence ratio amounted to 1.02.

Turning to TCTCCTGTGT, the switch fluorescence ratio turned out to be 1.04.

On to GGCAAGTGGA, for which the switch fluorescence ratio came to 1.02.

For TGGTCAATCC, the switch fluorescence ratio came out at 1.01.

With CAGTTCATAC, the switch fluorescence ratio is 1.19.

On to CCGTCTACGT, for which the switch fluorescence ratio is 1.05.

On to TGAATGGTTA, for which the switch fluorescence ratio was found to be 1.02.

As to AGGCGCAAAG, the switch fluorescence ratio amounted to 1.32.

In the case of CCGGTTTCTT, the switch fluorescence ratio was found to be 0.988.

CACCAATCCT: the switch fluorescence ratio was 1.06.

As to ACTCAATTG, the switch fluorescence ratio worked out at 1.01.

With TTGGTACGTT, the switch fluorescence ratio was determined as 0.977.

Take ATCGTGATCT: the switch fluorescence ratio was determined as 1.02.

As for CGGGTCCACG, the switch fluorescence ratio stood at 1.

Turning to CGTGGTTCC, the switch fluorescence ratio turned out to be 1.01.

Take AAGTTGAA: the switch fluorescence ratio was determined as 0.944.

With GCATGTTCAG, the switch fluorescence ratio worked out at 0.982.

Take GCGATGCTCG: the switch fluorescence ratio was determined as 1.15.

In the case of CATTGGCTAG, the switch fluorescence ratio was found to be 1.01.

In the case of ATCGTTGGGA, the switch fluorescence ratio worked out at 1.

As to TTCACGTAAC, the switch fluorescence ratio came out at 1.56.

On to GATTATGGGT, for which the switch fluorescence ratio stood at 1.02.

On to GTGGGTGACA, for which the switch fluorescence ratio is 0.994.

Consider GTGTTACCTC, for which the switch fluorescence ratio worked out at 0.986.

With GCACTGAGTC, the switch fluorescence ratio came out at 1.04.

For CCACAGAATG, the switch fluorescence ratio stood at 1.02.

With AGCTTCGCGG, the switch fluorescence ratio was 0.973.

Consider CCTCGCGGGT, for which the switch fluorescence ratio came out at 1.53.

For the sequence CACATGGGTT, the switch fluorescence ratio came out at 1.02.

On to GGAGCGCCTT, for which the switch fluorescence ratio amounted to 1.01.

Regarding CAGAGTCCGG, the switch fluorescence ratio was 1.04.

For the sequence TGGGACGTGT, the switch fluorescence ratio turned out to be 0.942.

With TTTTGATTA, the switch fluorescence ratio is 0.999.

With GGTGGAGGC, the switch fluorescence ratio amounted to 0.98.

As to TATTACAG, the switch fluorescence ratio was 1.01.

Turning to ATGCCTCGCT, the switch fluorescence ratio is 1.02.

For the sequence TGCGTCCAAT, the switch fluorescence ratio amounted to 1.03.
